Test results taken from the supplement of paper PMC12217912.
The list shows a part of the results. The full chains were built here from the parent and the listed change. Inactive controls read about 0.05.

B1: TEV protease; numbered along this chain (parent)
chain: MGESLFKGPRDYNPISSSICHLTNESDGHTTSLYGIGFGPFIITNKHLFRRNNGTLVVQSLHGVFKVKDTTTLQQHLVDGRDMIIIRMPKDFPPFPQKLKFREPQREERICLVTTNFQTKSMSSMVSDTSCTFPSGDGIFWKHWIQTKDGQCGSPLVSTRDGFIVGIHSASNFTNTNNYFTSVPKNFMELLTNQEAQQWVSGWRLNADSVLWGGHKVFMVKPEEPFQPVKEATQL

Variants of: B1
Experiment: raw area under fraction-flipped curve 0-4 h after induction (AUC4h, not background-subtracted), DNA-recorder readout of cleavage of the substrate (dimensionless); higher = more cleavage of the substrate by the protease variant
Details: temperature: 34 °C; time window: 0-4 h after rhamnose induction
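Note: Bxb1 expression induced with 0.2% (w/v) L-rhamnose at OD600 near 0.5, cultures sampled hourly, flipped fraction per protease–substrate barcode pair counted by paired-end Illumina sequencing.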

Row | Variant | area with substrate CNLYFQS | area with substrate DNLYFQS | area with substrate GNLYFQS | area with substrate HNLYFQS | area with substrate INLYFQS | area with substrate LNLYFQS | area with substrate PNLYFQS | area with substrate SNLYFQS | area with substrate TNLYFQS | area with substrate VNLYFQS | area with substrate WNLYFQS | area with substrate FNLYFQS | area with substrate MNLYFQS | area with substrate NNLYFQS | area with substrate RNLYFQS | area with substrate KNLYFQS | area with substrate YNLYFQS | area with substrate QNLYFQS
1 | MGESLFKGPRDYNPISSSICHLTNESDGHTTSLYGIGFGPFIITNKHLFRRNNGTLVVQSLHGVFKVKDTTTLQQHLVDGRDMIIIRMPKDFPPFPQKLKFREPQREERICLVTTNFQTKSMSSMVSDTSCTFPSGDGIFWKHWIQTKDGQCGSPLVSTRSGFIVGIHSASNFTNTNNYFTSVPKNFMELLTNQEAQQWVSGWRLNADSVLWGGHKVFMVKPEEPFQPVKEATQL [D161S] | 0.0506 | 0.0454 | 0.0561 | 0.0668 | 0.0589 | 0.0614 | 0.0655 | 0.0705 | 0.06 | 0.0692 | 0.0559 |  |  |  |  |  |  | 
2 | MGESLFKGPRDYNPISSSICHLTNESDGHTTSLYGIGFGPFIITNKHLFRRNNGTLVVQSLHGVFKVKDTTTLQQHLVDGRDMIIIRMPKDFPPFPQKLKFREPQREERICLVTTNFQTKSMSSMVSDTSCTFPSGDGIFWKHWIQTKDGQCGSPLVSTRYGFIVGIHSASNFTNTNNYFTSVPKNFMELLTNQEAQQWVSGWRLNADSVLWGGHKVFMVKPEEPFQPVKEATQL [D161Y] | 0.0511 | 0.0524 | 0.0432 | 0.0634 |  | 0.0541 | 0.058 | 0.0468 | 0.0597 |  | 0.0589 | 0.0553 | 0.0566 | 0.0712 | 0.0569 |  |  | 
3 | MGESLFKGPRDYNPISSSICHLTNESDGHTTSLYGIGFGPFIITNKHLFRRNNGTLVVQSLHGVFKVKDTTTLQQHLVDGRDMIIIRMPKDFPPFPQKLKFREPQREERICLVTTNFQTKSMSSMVSDTSCTFPSGDGIFWKHWIQTKDGQCGSPLVSTRDGFIVIIHSASNFTNTNNYFTSVPKNFMELLTNQEAQQWVSGWRLNADSVLWGGHKVFMVKPEEPFQPVKEATQL [G166I] | 0.048 | 0.0582 |  | 0.0408 |  | 0.053 | 0.0514 | 0.0398 | 0.0532 |  | 0.0543 |  | 0.0595 | 0.0121 |  | 0.039 | 0.0511 | 
4 | MGESLFKGPRDYNPISSSICHLTNESDGHTTSLYGIGFGPFIITNKHLFRRNNGTLVVQSLHGVFKVKDTTTLQQHLVDGRDMIIIRMPKDFPPFPQKLKFREPQREERICLVTTNFQTKSMSSMVSDTSCTFPSGDGIFWKHWIQTKDGQCGSPLVSTRDGFIVLIHSASNFTNTNNYFTSVPKNFMELLTNQEAQQWVSGWRLNADSVLWGGHKVFMVKPEEPFQPVKEATQL [G166L] | 0.065 | 0.0478 | 0.0697 | 0.0468 |  |  | 0.0368 |  | 0.0539 |  | 0.0531 | 0.0392 |  |  |  |  | 0.0543 | 0.0509
5 | MGESLFKGPRDYNPISSSICHLTNESDGHTTSLYGIGFGPFIITNKHLFRRNNGTLVVQSLHGVFKVKDTTTLQQHLVDGRDMIIIRMPKDFPPFPQKLKFREPQREERICLVTTNFQTKSMSSMVSDTSCTFPSGDGIFWKHWIQTKDGQCGSPLVSTRDGFIVGIHSAVNFTNTNNYFTSVPKNFMELLTNQEAQQWVSGWRLNADSVLWGGHKVFMVKPEEPFQPVKEATQL [S171V] | 0.0259 | 0.0559 | 0.0537 | 0.0496 |  | 0.0604 | 0.062 | 0.0624 | 0.0652 | 0.0476 | 0.0578 |  |  | 0.0716 |  | 0.0526 | 0.0634 | 
6 | MGESLFKGPRDYNPISSSICHLTNESDGHTTSLYGIGFGPFIITNKHLFRRNNGTLVVQSLHGVFKVKDTTTLQQHLVDGRDMIIIRMPKDFPPFPQKLKFREPQREERICLVTTNFQTKSMSSMVSDTSCTFPSGDGIFWKHWIQTKDGQCGSPLVSTRDSFIVGIHSASNFTNTNNYFTSVPKNFMELLTNQEAQQWVSGWRLNADSVLWGGHKVFMVKPEEPFQPVKEATQL [G162S] | 0.0579 | 0.0598 | 0.0686 | 0.0354 |  | 0.0573 | 0.0537 | 0.0569 | 0.115 |  | 0.0496 | 0.0669 |  |  |  | 0.0643 |  | 
7 | MGESLFKGPRDYNPISSSICHLTNESDGHTTSLYGIGFGPFIITNKHLFRRNNGTLVVQSLHGVFKVKDTTTLQQHLVDGRDMIIIRMPKDFPPFPQKLKFREPQREERICLVTTNFQTKSMSSMVSDTSCTFPSGDGIFWKHWIQTKDGQCGSPLVSTRDAFIVGIHSASNFTNTNNYFTSVPKNFMELLTNQEAQQWVSGWRLNADSVLWGGHKVFMVKPEEPFQPVKEATQL [G162A] | 0.0686 | 0.0701 | 0.0655 | 0.0304 |  | 0.0532 | 0.0585 |  |  |  |  |  |  |  |  | 0.0574 |  | 
8 | MGESLFKGPRDYNPISSSICHLTNESDGHTTSLYGIGFGPFIITNKHLFRRNNGTLVVQSLHGVFKVKDTTTLQQHLVDGRDMIIIRMPKDFPPFPQKLKFREPQREERICLVTTNFQTKSMSSMVSDTSCTFPSGDGIFWKHWIQTKDGQCGSPLVSTRDGFIVGIHSASEFTNTNNYFTSVPKNFMELLTNQEAQQWVSGWRLNADSVLWGGHKVFMVKPEEPFQPVKEATQL [N172E] | 0.0549 | 0.0488 |  | 0.0602 | 0.0596 | 0.0554 |  | 0.0706 | 0.0551 |  | 0.0559 |  |  | 0.0892 |  |  |  | 
9 | MGESLFKGPRDYNPISSSICHLTNESDGHTTSLYGIGFGPFIITNKHLFRRNNGTLVVQSLHGVFKVKDTTTLQQHLVDGRDMIIIRMPKDFPPFPQKLKFREPQREERICLVTTNFQTKSMSSMVSDTSCTFPSGDGIFWKHWIQTKDGQCGSPLVSTRDGFIAGIHSASNFTNTNNYFTSVPKNFMELLTNQEAQQWVSGWRLNADSVLWGGHKVFMVKPEEPFQPVKEATQL [V165A] | 0.0564 | 0.0461 | 0.0441 | 0.0524 |  | 0.06 |  |  | 0.0545 |  | 0.0458 |  | 0.0472 |  |  | 0.0625 |  | 
10 | MGESLFKGPRDYNPISSSICHLTNESDGHTTSLYGIGFGPFIITNKHLFRRNNGTLVVQSLHGVFKVKDTTTLQQHLVDGRDMIIIRMPKDFPPFPQKLKFREPQREERICLVTTNFQTKSMSSMVSDTSCTFPSGDGIFWKHWIQTKDGQCGSPLVSTRDGFIGGIHSASNFTNTNNYFTSVPKNFMELLTNQEAQQWVSGWRLNADSVLWGGHKVFMVKPEEPFQPVKEATQL [V165G] | 0.0527 | 0.0719 | 0.049 | 0.0541 |  | 0.0512 | 0.0529 | 0.0585 | 0.0576 | 0.0586 | 0.0528 | 0.0523 | 0.0601 |  | 0.0895 |  | 0.0483 | 
